Experimental data: patent US20230265152A1, “GLP-1R AGONIST / FGF21 FUSION PROTEINS” (SANOFI, priority 2020, published 2023)

B1: 1 (protein)
chain: HGEGTFTSDLSKQLEEERVQLFIEWLKATGPSSGAPPPSGGGGGGGSGGGGSGGGGSA[in this place human IgG1 Fc with changes]GGGSGSAHPIPDSSPLLQFGGQVRQRYLYTDDACQTEAHLEIREDGTVGGAADQSPESLLQLKALKPGVIQILGVKTSRFLCQRPDGALYGSLHFDPEACSFRELLLEDGYNVYQSEAHGLPLHLPGCKSPHRDPAPRGPARFLPLPGLPPAPPEPPGILAPQPPDVGSSDPLSMVGSQGRSPSYAS
modifications: Fusion Protein
B2: 4 (protein)
chain: HGEGTFTSDLSKQLEEERVQLFIEWLKATGPSSGAPPPSGGGGGGGSGGGGSGGGGSA[in this place human IgG4 Fc with changes]GGGSGSAHPIPDSSPLLQFGGQVRQRYLYTDDACQTEAHLEIREDGTVGGAADQSPESLLQLKALKPGVIQILGVKTSRFLCQRPDGALYGSLHFDPEACSFRELLLEDGYNVYQSEAHGLPLHLPGCKSPHRDPAPRGPARFLPLPGLPPAPPEPPGILAPQPPDVGSSDPLSMVGSQGRSPSYAS
modifications: Fusion Protein
B3: 2 (protein)
chain: HGEGTFTSDLSKQLEEERVQLFIEWLKATGPSSGAPPPSGGGGGGGSGGGGSGGGGSA[in this place human IgG1 Fc with changes]GGGSGSAHPIPDSSPLLQFGGQVRQRYLYTDDACQTEAHLEIREDGTVGGAADQSPESLLQLKALKPGVIQILGVKTSRFLCQRPDGALYGSLHFDPEACSFRELLLEDGYNVYQSEAHGLPLHLPGCKSPHRDPAPRGPARFLPLPGLPPAPPEPPGILAPQPPDVGSSDPLSMVYPSQGRSPSYAS
modifications: Fusion Protein
B4: 6 (protein)
chain: HGEGTFTSDLSKQLEEERVQLFIEWLKATGPSSGAPPPSGGGGGGGSGGGGSGGGGSA[in this place human IgG4 Fc with changes]GGGSGSAHPIPDSSPLLQFGGQVRQRYLYTDDACQTEAHLEIREDGTVGGAADQSPESLLQLKALKPGVIQILGVKTSRFLCQRPDGALYGSLHFDPEACSFRELLLEDGYNVYQSEAHGLPLHLPGCKSPHRDPAPRGPARFLPLPGLPPAPPEPPGILAPQPPDVGSSDPLSMVYPSQGRSPSYAS
modifications: Fusion Protein

Legend:
[1] = Conformational and thermal stability on UNit (intrinsic fluorescence BCM and static light scattering); assay type: physicochemical; settings: for Tagg: UNit SLS 266 nm, 5 mg/mL in phosphate buffer pH 7.4; for Tm: UNit, 5 mg/mL in phosphate buffer pH 7.4, 20 to 95° C. at 0.3° C./min
Procedure: Conformational stability and propensity to aggregate was determined simultaneously for the GLP-1RA/FGF21 Fc fusion proteins using a UNit (Unchained Labs, CA, USA). The UNit combines the analysis of intrinsic fluorescence of a protein to detect unfolding of the protein and a Static Light Scattering (SLS) measurement in order to investigate the aggregation behavior.
Data were acquired for the fusion proteins at a concentration of 5 mg/mL formulated in phosphate buffer at pH 7.4. A volume of 9 µL of each sample were loaded into a UNi capillary holder and analyzed in triplicate on the UNit. The temperature was increased from 20 to 95° C. at a constant linear rate of 0.3° C./min. The BaryCentric Mean (BCM) indicating the intrinsic fluorescence and SLS signals detected with a 266 nm laser were plotted against the applied temperature in order to obtain melting temperatures (Tm) and aggregation onset temperatures (Tagg). Data were analyzed using the UNit Analysis software v.

[2] = Pharmacokinetics after single subcutaneous administration in non-human primate; assay type: in vivo, male Cynomolgus monkeys; settings: 0.3 mg/kg s.c.
Procedure: (§1) Plasma concentrations and pharmacokinetic parameters of GLP-1RA/FGF21 Fc fusion proteins were determined after single subcutaneous administration of 0.3 mg/kg in solution to female C57Bl/6 mice or male Cynomolgus monkeys using three different methods. Blood samples were obtained at time points from 30 minutes to 168 hours after dosing.
(§2) Plasma samples were analyzed for the intact FGF21 part of the fusion proteins with an ELISA kit (F1231-K01, Eagle Biosciences, USA). The assay utilized the two-site sandwich technique with two selected antibodies that bound to different epitopes of human intact FGF21. One of the antibodies specifically bound to the N-terminal amino acids (aa 29-35) of human FGF21, and the other antibody specifically bound to the C-terminus (aa 203-209) of human FGF21. Assay standards, controls and unknown samples were added directly to wells of microplate that was coated with an anti-human FGF21 (aa 29-35)-specific antibody. Simultaneously, a horseradish peroxidase conjugated anti-human FGF21 (aa 203-209)-specific antibody was added to each well. After the first incubation period, the antibody on the walls of the microtiter wells captured human FGF21 in the sample and unbound protein in each microtiter well was washed away. A “sandwich” of “anti-FGF21 antibody-human intact FGF21-HRP conjugated tracer antibody” was formed. […] For the detection of the immunocomplex, the well was then incubated with a substrate solution in a timed reaction and then measured in a spectrophotometric microplate reader. […]
(§3) The concentration of the full-length GLP-1RA/FGF21 Fc fusion proteins in plasma were determined utilizing an ELISA method. […] Following washing 3 times with 300 µL PBS-T 150 µL read buffer was added to the wells.
(§4) Plasma samples were analyzed for the intact GLP-1 part of the fusion proteins with a GLP-1 ELISA method. […] Following washing 3 times with 300 µL PBS-T, 150 µL read buffer was added to the wells.
(§5) The pharmacokinetic parameters were calculated by the program WinNonlin 6.4 using a non-compartmental model and linear trapezoidal interpolation calculation. […]

[3] = Pharmacokinetics after single subcutaneous administration in mouse; assay type: in vivo, female C57Bl/6 mice; settings: 0.3 mg/kg s.c.
Procedure: as §1, §2, §3, §4, §5

Molecule | Tagg [1] | Tm [1] | t½ monkey ([2]; assay FGF21 intact) | t½ monkey ([2]; assay GLP-1 intact) | t½ monkey ([2]; assay full-length) | t½ mouse ([3]; assay FGF21 intact) | t½ mouse ([3]; assay GLP-1 intact) | t½ mouse ([3]; assay full-length)
B1 | 75.5 °C | 70.5 °C |  |  |  |  |  | 
B2 | 64.0 °C | 64.9 °C |  |  |  |  |  | 
B3 | 71.5 °C | 69.6 °C | 42.5 h | 33.4 h | 23.5 h | 27.6 h | 27.8 h | 16.1 h
B4 | 63.4 °C | 64.1 °C |  |  |  |  |  | 
